Assay results taken from the supplement of paper PMC9446081.
In all, about 39,000 compounds went through this assay and about 220 (0.56%) showed activity. Some of the results follow.

test system: Escherichia coli K-12 BW25113; experiment: relative growth (OD600 normalised to plate interquartile mean) (fraction); higher = less growth inhibition, active = 0.2 or less; details: 50 µM; LB; incubation time: overnight (16-24 h)
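Note: static incubation at 37 °C against the wild-type strain, values averaged over two biological replicates.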

| Compound | relative growth |
| --- | --- |
| O=C(C[C@@H]1CC[C@H]2NC[C@@H](O)COC[C@@H]2O1)NCCN1CCCC1 | inactive: 0.977 |
| Cc1ccc(S(=O)(=O)N2C[C@H](O)COC[C@H]3O[C@@H](CC(=O)N[C@H]4CCN(Cc5ccccc5)C4)CC[C@@H]32)cc1 | inactive: 1.05 |
| Cc1ccc(S(=O)(=O)N(C)C[C@H]2Oc3ccc(NC(=O)Nc4ccc(C(F)(F)F)cc4)cc3CC(=O)N([C@@H](C)CO)C[C@H]2C)cc1 | inactive: 1.01 |
| O[C@@H](Cc1ccccc1)[C@@H](/C=C/C1CC1)N(CC#Cc1ccccc1)Cc1ccccc1Br | inactive: 1.01 |
| COc1ccc(-c2ccc3c(c2)O[C@H](CN(C)CC2CCOCC2)[C@@H](C)CN([C@H](C)CO)S3(=O)=O)cc1 | inactive: 1.02 |
| COc1cccc(NC(=O)N2C[C@@H](O)COC[C@H]3O[C@@H](CC(=O)NCc4ccccc4F)CC[C@@H]32)c1 | inactive: 0.917 |
| Cn1nc(C2CC2)cc1N | inactive: 1.01 |
| Cc1cc(-c2nnc(N)o2)nn1C | inactive: 0.983 |
| C[C@@H]1CCCCO[C@@H](CN(C)C(=O)C2CCCCC2)[C@@H](C)CN([C@@H](C)CO)C(=O)c2cc(NC(=O)C3CCCCC3)ccc2O1 | inactive: 0.991 |
| C[C@H]1CCCCO[C@@H](CN(C)C(=O)Nc2ccc(F)cc2)[C@@H](C)CN([C@@H](C)CO)C(=O)c2cc(NS(=O)(=O)c3cccs3)ccc2O1 | inactive: 0.992 |
| O=c1c(O)cc(C2Oc3cc(O)cc(O)c3CC2O)cc2c(C3Oc4cc(O)cc(O)c4CC3O)cc(O)c(O)c12 (configuration not stated) | inactive: 1.03 |
| C[C@@H]1CN([C@@H](C)CO)C(=O)c2cc(NC(=O)Nc3ccc(C(F)(F)F)cc3)ccc2O[C@H]1CN(C)S(=O)(=O)c1ccc(Cl)cc1 | inactive: 0.976 |
| O=C(CCCCC(=O)N/N=C/[C@@H](O)[C@H](O)[C@H](O)CO)NO | inactive: 0.976 |
| C[C@@H]1CCCCO[C@@H](CN(C)C(=O)Nc2ccccc2)[C@H](C)CN([C@@H](C)CO)C(=O)c2cc(NC(=O)C3CCCCC3)ccc2O1 | inactive: 1.02 |
| C[C@H](CO)N1C[C@H](C)[C@@H](CN(C)Cc2ccc(Cl)c(Cl)c2)Oc2ccc(NC(=O)CCCCCC(=O)Nc3ccccc3N)cc2C1=O | inactive: 0.968 |
| C[C@@H]1CCCCO[C@@H](CN(C)C(=O)Nc2ccc(C(F)(F)F)cc2)[C@H](C)CN([C@@H](C)CO)C(=O)c2cc(N(C)C)ccc2O1 | inactive: 0.987 |
| C[C@@H]1CN([C@H](C)CO)C(=O)Cc2cc(NC(=O)Cc3ccccc3)ccc2O[C@H]1CN(C)S(=O)(=O)c1cccs1 | inactive: 1 |
| C[C@H](CO)N1C[C@H](C)[C@H](CN(C)S(=O)(=O)c2cccs2)Oc2ncc(C#Cc3ccc(F)cc3)cc2C1=O | inactive: 1.02 |
| CCN(CC)c1ccc(N2CC=C[C@@]34O[C@@H]5C=CCCOC(=O)[C@@H]5[C@H]3C(=O)N([C@@H](C)CO)[C@@H]4C2=O)cc1 | inactive: 0.963 |
| CO[C@@H]1CN(C)C(=O)c2ccc(NC(=O)CN(C)C)cc2OC[C@@H](C)N(C(=O)c2ccncc2)C[C@H]1C | inactive: 1.01 |
| C[C@H](CO)N1C[C@H](C)[C@H](CN(C)C(=O)NC2CCCCC2)OCc2ccccc2-c2c(n(C)c3ccccc23)C1=O | inactive: 1 |

| Compound | relative growth |
| --- | --- |
| COc1ccc(NC(=O)N(C)C[C@@H]2Oc3c(NC(=O)C4CC4)cccc3C(=O)N([C@H](C)CO)C[C@@H]2C)cc1 | inactive: 1.03 |
| C[C@@H]1CN([C@@H](C)CO)C(=O)c2ccccc2-c2ccccc2CO[C@@H]1CN(C)Cc1ccccc1C(F)(F)F | inactive: 1.04 |
| C[C@H](CO)N1C[C@H](C)[C@@H](CN(C)C(=O)Nc2ccc(C(F)(F)F)cc2)Oc2ccc(NC(=O)Cc3cn(C)c4ccccc34)cc2CC1=O | inactive: 1.02 |
| Cc1nnc(CN)o1 | inactive: 0.983 |
| C[C@H](CO)N1C[C@H](C)[C@H](CN(C)CC2CC2)Oc2c(NS(=O)(=O)c3cccs3)cccc2C1=O | inactive: 0.99 |
| C[C@@H]1CN([C@H](C)CO)C(=O)c2cc(NC(=O)NC3CCCCC3)ccc2O[C@@H]1CN(C)Cc1ccc(Cl)c(Cl)c1 | inactive: 0.919 |
| N=c1sccn1CC(=O)O | inactive: 1.04 |
| O=C(C[C@@H]1CC[C@@H](NC(=O)Nc2ccc3c(c2)OCO3)[C@@H](CO)O1)NCCCN1CCOCC1 | inactive: 1.03 |
| Cn1cnc(CCNC(=O)C[C@H]2CC[C@H]3[C@@H](COC[C@H](O)CN3C(=O)Nc3ccc(C(F)(F)F)cc3)O2)c1 | inactive: 0.99 |
| C[C@H](CO)N1C[C@H](C)[C@@H](CN(C)S(=O)(=O)c2ccccc2)Oc2c(NS(=O)(=O)c3ccccc3)cccc2C1=O | inactive: 0.994 |
| C[C@H](CO)N1C[C@H](C)[C@H](CN(C)S(=O)(=O)c2ccccc2C#N)OCc2cn(nn2)CCCC1=O | inactive: 0.995 |
| C[C@H]1CN([C@@H](C)CO)C(=O)c2cccc(NC(=O)Nc3cccc4ccccc34)c2O[C@H]1CN(C)S(=O)(=O)c1cccs1 | inactive: 1.02 |
| CCCC1CC(C(=O)NC(C(C)O)C2OC(SC)C(O)C(O)C2O)N(C)C1.Cl (configuration not stated) | inactive: 0.873 |
| C[C@@H]1CN([C@H](C)CO)C(=O)c2cc(NC(=O)CCCN(C)C)ccc2O[C@H]1CN(C)Cc1ccncc1 | inactive: 0.996 |
| COc1ccc(CN(C)C[C@@H]2Oc3c(NC(=O)Nc4ccc(C(F)(F)F)cc4)cccc3C(=O)N([C@@H](C)CO)C[C@H]2C)cc1 | inactive: 0.818 |
| CN(C)CCOC(c1ccc(Cl)cc1)c1ccccn1.O=C(O)C=CC(=O)O (configuration not stated) | inactive: 0.986 |
| C[C@@H](N)C1CCC(C(=O)Nc2ccncc2)CC1 (some centres not stated) | inactive: 1.04 |
| O=C(O)CCCCCCC(=O)Nc1ccc([C@H]2O[C@@H](CSc3ccncc3)C[C@H](c3ccccc3)O2)cc1 | inactive: 0.985 |
| COc1ccc(S(=O)(=O)Nc2ccc3c(c2)C(=O)N([C@H](C)CO)C[C@H](C)[C@@H](CN(C)C(=O)Nc2ccc4c(c2)OCO4)OCCCC[C@@H](C)O3)cc1 | inactive: 1.02 |
| C[C@@H]1CN([C@@H](C)CO)S(=O)(=O)c2ccc(C#Cc3ccccc3F)cc2O[C@H]1CN(C)C(=O)Cc1cccnc1 | inactive: 1 |
| C[C@H](CO)N1C[C@H](C)[C@@H](CN(C)S(C)(=O)=O)Oc2ccc(NC(=O)Nc3ccc(C(F)(F)F)cc3)cc2C1=O | inactive: 1 |

| Compound | relative growth |
| --- | --- |
| COc1ccc(NC(=O)Nc2ccc3c(c2)C(=O)N([C@@H](C)CO)C[C@@H](C)[C@@H](CN(C)CC2CCCCC2)OCCCC[C@@H](C)O3)cc1 | inactive: 0.955 |
| COc1ccc(NC(=O)N(C)C[C@H]2OCCCC[C@H](C)Oc3ccc(NC(=O)Nc4ccc(F)cc4)cc3C(=O)N([C@@H](C)CO)C[C@@H]2C)cc1 | inactive: 0.993 |
| C[C@H](CO)N1C[C@H](C)[C@H](CN(C)Cc2ccc(C(=O)O)cc2)Oc2c(NC(=O)C3CC3)cccc2C1=O | inactive: 1.02 |
| C[C@@H]1CCCCO[C@@H](CN(C)C(=O)Nc2ccc3c(c2)OCO3)[C@@H](C)CN([C@@H](C)CO)C(=O)c2cc(NC(=O)Nc3ccc(F)cc3)ccc2O1 | inactive: 1.03 |
| CN1CCC[C@]2(CCN(C(=O)CCn3ccc(=O)[nH]c3=O)C2)C1=O | inactive: 0.987 |
| CCCN(C)C[C@H]1OCCCC[C@H](C)Oc2ccc(NS(=O)(=O)c3ccc(Cl)cc3)cc2C(=O)N([C@@H](C)CO)C[C@H]1C | inactive: 0.973 |
| C[C@@H]1CCCCO[C@@H](CN(C)Cc2ccc3c(c2)OCO3)[C@H](C)CN([C@H](C)CO)C(=O)c2cc(NC(=O)Nc3ccccc3)ccc2O1 | inactive: 0.98 |
| C[C@@H]1CN([C@@H](C)CO)C(=O)c2cc(NS(=O)(=O)c3ccc(Cl)cc3)ccc2O[C@@H](C)CCCCO[C@@H]1CN(C)Cc1ccc(C(=O)O)cc1 | inactive: 1.05 |
| COc1ccc(NC(=O)N(C)C[C@H]2Oc3ccc(NC(=O)Nc4ccc(C(F)(F)F)cc4)cc3C(=O)N([C@H](C)CO)C[C@H]2C)cc1 | inactive: 1.02 |
| COc1ccc(S(=O)(=O)N(C)C[C@@H]2Oc3ccc(NC(=O)c4ccncc4)cc3C(=O)N([C@H](C)CO)C[C@H]2C)cc1 | inactive: 1.01 |
| CC(C)NC(=O)N(C)C[C@@H]1Oc2ccc(NC(=O)CCN3CCOCC3)cc2C(=O)N([C@H](C)CO)C[C@H]1C | inactive: 1 |
| Nc1ccccc1C(=O)NCCN1CCNC1=O | inactive: 1.01 |
| COc1ccc(CN(C)C[C@@H]2OCCCC[C@@H](C)Oc3ccc(NC(=O)CCC(F)(F)F)cc3C(=O)N([C@H](C)CO)C[C@@H]2C)cc1 | inactive: 1.01 |
| C[C@H]1CN([C@@H](C)CO)C(=O)CCCn2cc(nn2)CO[C@H]1CN(C)C(=O)Nc1cccc2ccccc12 | inactive: 1 |
| C=CC[C@@H](CC(=O)N(CCO)Cc1ccccc1)C(=O)N[C@H](COC(=O)[C@H](CC=C)NC(=O)OCC1c2ccccc2-c2ccccc21)C(C)(C)C | inactive: 1.01 |
| O=C(O)CN1CCOC1=O | inactive: 1.02 |
| C[C@H](CO)N1C[C@H](C)[C@@H](CN(C)Cc2ccccc2)Oc2ccc(NC(=O)CCCCCC(=O)Nc3ccccc3N)cc2C1=O | inactive: 1.01 |
| Cc1noc(C)c1NC(=O)Nc1ccc2c(c1)C(=O)N([C@@H](C)CO)C[C@H](C)[C@@H](CN(C)S(C)(=O)=O)O2 | inactive: 0.987 |
| CCc1nc2ccccc2nc1CC | inactive: 0.997 |
| C[C@H]1CN([C@@H](C)CO)C(=O)Cc2cc(NS(=O)(=O)c3ccccc3)ccc2O[C@H]1CN(C)S(C)(=O)=O | inactive: 1.03 |
